Source: ChEMBL document CHEMBL4888484, “Replenishing the malaria drug discovery pipeline: Screening and hit evaluation of the MMV Hit Generation Library 1 (HGL1) against asexual blood stage Plasmodium falciparum ,using a nano luciferase reporter read-out” (2022)
The whole screen tested about 150,000 compounds, of which about 540 (0.36%) showed an effect of 50% or more. Some of the results follow.

Tested on: Plasmodium falciparum
Test: Primary screen in NF54 nanoGlo assay, in single point, at 2uM, 72h; a lower Z score goes with more inhibition
Format: functional, Erythrocyte
Details: timepoint 72 hour

Row | SMILES | % Inhibition | Z score
1 | Cn1nccc1-c1cn([C@H]2CCOC2=O)nn1 | -8% | 1.1
2 | CC(C)C[C@H]1CN(C)CCN1C(=O)c1cc(-c2ccccn2)no1 | -5% | 0.72
3 | O=C1NCCN2CCN(C(=O)COCc3ccccc3)CC[C@@H]12 | -5% | 0.71
4 | C=CCNC(=O)CN(Cc1ccco1)c1ccc(OC)c(F)c1 | 6% | -0.62
5 | CCc1cccc(NC(=O)Cn2c(C(=O)NCc3ccc(F)cc3F)cccc2=O)c1 | -16% | 1.57
6 | COCCCC(=O)Nc1cc(S(=O)(=O)N2CCOCC2)ccc1N1CCOCC1 | -9% | 1.79
7 | NC(=O)[C@H]1CCCN(C(=O)C2=CCCC2)C1 | 6% | -0.78
8 | Brc1cccc(C2(c3nc(C4CCCC4)no3)CCOCC2)c1 | -4% | 0.76
9 | Cn1ccc(C(=O)N2CCOC(C)(C)C2)cc1=O | -3% | 0.63
10 | C[C@@H](CC(=O)N1CCCN(C(N)=O)CC1)C1CCCCC1 | -9% | 1.35
11 | COc1cc2c(cc1Cl)CN(Cc1nc(C3CC3)no1)CC2 | -9% | 0.95
12 | Cc1nc(CN(C)C2CCC(NC(=O)OC(C)(C)C)CC2)oc1C (stereo unspecified) | -11% | 0.94
13 | COc1ccc(OC)c([C@@H]2CCCN2C(=O)CN2CCN(CC(=O)Nc3c(C)cccc3C)CC2)c1 | 4% | -0.58
14 | O=C(NCc1ccccn1)N1CCCCCO1 | -11% | 1.83
15 | N#Cc1c(F)cccc1N1CCCC[C@@H]1Cn1cncn1 | 2% | -0.36
16 | CCc1ccccc1NC(=O)c1ncn2c1C(=O)N(C1CC1)[C@](C)(C(=O)NC1CCCC1)C2 | -6% | 0.58
17 | COc1cc2c(cc1CN1CC[C@H](OC)C1)OCCCO2 | -3% | 0.36
18 | O=C(c1ccncc1)N1CCC[C@H](n2cc(-c3nc(C4CC4)no3)nn2)C1 | 5% | -0.59
19 | O=C(Nc1ccc(Cl)cc1)c1cccc(-c2cnc3ccccc3c2)c1 | 2% | -0.35
20 | CCCCn1cnc2c1c(=O)n(Cc1nc3ccccc3s1)c(=O)n2CCC | -15% | 2.17
21 | COc1ccc(CC(=O)N2C3COCC2C3)nc1 | 33% | -3.69
22 | COc1ccccc1CC1(O)CCN(C(=O)NCC[C@H]2CCC(=O)N2)CC1 | 6% | -0.82

Row | SMILES | % Inhibition | Z score
23 | CC(C)CN(CC(C)C)c1nnc(NC(=O)NCc2ccccc2)s1 | -3% | 0.57
24 | CCn1c(C2CCN(C(=O)Cc3cccs3)CC2)nn(CCOC)c1=O | -3% | 0.33
25 | CCC1(CC)CCCN(CCC(=O)O)CC1 | -15% | 2.38
26 | CCN(c1cccc(C)c1)[C@@H](C(=O)NC1CCCCC1)c1ccc(Cl)cc1 | -11% | 1.72
27 | Cc1cnc(C(=O)N2CCCCC[C@H]2c2nnc(-c3ccccc3)o2)cn1 | -13% | 2.42
28 | Cc1nc2ccc(NC(=O)Cc3n[nH]c(=O)c4ccccc34)cc2s1 | -13% | 1.11
29 | O=C(CC1CCCC1)NCc1ccccc1-c1ccsc1 | 6% | -1.19
30 | O=C(Cc1cccc(OC(F)(F)F)c1)NC[C@H](O)C1CC1 | -11% | 1.42
31 | Cc1ccc(C(=O)N(C)C)cc1OC(=O)c1ccc2c(c1)COC2 | -13% | 1.45
32 | Cc1ncsc1CCc1ncnn1C(C)(C)C | -3% | 0.48
33 | O=S(=O)(c1ccccc1)N1CC[C@@]2(CO)CN(Cc3ccccc3)C[C@H]2C1 | -6% | 0.73
34 | CCN1CCC[C@H](NC(=O)c2cc(C(C)C)[nH]n2)C1 | 3% | -0.35
35 | CC1CCN(C(=O)N2C[C@H](C(N)=O)[C@@H](c3ccccc3)C2)CC1 | -4% | 0.58
36 | COc1ccc(-c2noc(NCC3CCN(Cc4ccccc4F)CC3)n2)cc1 | -29% | 2.54
37 | Cc1ccc(Oc2cnn(-c3ccc(F)cc3)c(=O)c2Nc2cccc(C(=O)NCc3cccnc3)c2)cc1 | 6% | -1.15
38 | Cc1ccc(NC(=O)N(C)CCO)c(F)c1 | -7% | 0.66
39 | CNC(=O)C1CCC(NCc2c(C)nn(C)c2N(C)C)CC1 (stereo unspecified) | -2% | 0.3
40 | O=C(c1cn(Cc2ccccn2)nn1)N(C1CCCCC1)C1CC1 | -8% | 1.51
41 | N#Cc1cccc(C#N)c1NC[C@H]1CCCO1 | 31% | -3.98
42 | C[C@@H](NC(=O)c1cc[nH]n1)c1cc2ccccc2o1 | 7% | -0.74
43 | CN=C(NCc1cc(C)c(F)c(C)c1)NCc1cnn(C)c1 | -16% | 1.84
